The list shows a part of the results.
Key:
Assay in all cases: glycan array binding signal (z-score within array); higher = stronger binding
Settings in all cases: glycan notation: IUPAC condensed, linker removed
[1] = molecular target: Fuc(a1-3)[Gal(b1-4)]GlcNAc(b1-2)Man(a1-6)[Gal(b1-4)GlcNAc(b1-2)Man(a1-3)]Man(b1-4)GlcNAc(b1-4)GlcNAc
Method in brief: (§1)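 Glycan array binding is given as a within-array Z-score, which can be read as non-binding when negative. The arrays, 3228 of them, came from the Consortium for Functional Glycomics database and were retained only where the protein sequence was available. Z-scores were averaged across arrays of the same protein sequence at different concentrations or buffers and across linkers.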

[2] = molecular target: Fuc(a1-3)[Gal(b1-4)]GlcNAc(b1-3)Gal(b1-3)[Fuc(a1-4)]GlcNAc
Method in brief: as §1

[3] = molecular target: Fuc(a1-3)[Gal(b1-4)]GlcNAc(b1-4)Gal(b1-4)[Fuc(a1-3)]GlcNAc
Method in brief: as §1

[4] = molecular target: Fuc(a1-3)[Gal(b1-4)]GlcNAc(b1-4)Gal(b1-4)[Fuc(a1-3)]GlcNAc(b1-4)Gal(b1-4)[Fuc(a1-3)]GlcNAc
Method in brief: as §1

[5] = molecular target: Fuc(a1-3)[Gal(b1-4)]GlcNAc6S
Method in brief: as §1

[6] = molecular target: Fuc(a1-3)[Gal3S(b1-4)]Glc6S
Method in brief: as §1

[7] = molecular target: Fuc(a1-3)[Gal3S(b1-4)]GlcNAc
Method in brief: as §1

[8] = molecular target: Fuc(a1-3)[Gal3S(b1-4)]GlcNAc6S
Method in brief: as §1

[9] = molecular target: Fuc(a1-3)[GalNAc(b1-4)]GlcNAc
Method in brief: as §1

Fuc(a1-4)GlcNAc = molecular target: Fuc(a1-4)GlcNAc
Method in brief: as §1

Fuc(b1-3)GlcNAc = molecular target: Fuc(b1-3)GlcNAc
Method in brief: as §1

Gal(a1-2)Gal = molecular target: Gal(a1-2)Gal
Method in brief: as §1

Gal(a1-3)Gal = molecular target: Gal(a1-3)Gal
Method in brief: as §1

Gal(a1-3)Gal(b1-3)GlcNAc = molecular target: Gal(a1-3)Gal(b1-3)GlcNAc
Method in brief: as §1

Gal(a1-3)Gal(b1-4)Glc = molecular target: Gal(a1-3)Gal(b1-4)Glc
Method in brief: as §1

Gal(a1-3)Gal(b1-4)GlcNAc = molecular target: Gal(a1-3)Gal(b1-4)GlcNAc
Method in brief: as §1

[10] = molecular target: Gal(a1-3)Gal(b1-4)[Fuc(a1-3)]GlcNAc
Method in brief: as §1

Gal(a1-3)GalNAc = molecular target: Gal(a1-3)GalNAc
Method in brief: as §1

[11] = molecular target: Gal(a1-3)[Gal(a1-4)]Gal(b1-4)GlcNAc
Method in brief: as §1

Gal(a1-4)Gal(b1-4)Glc = molecular target: Gal(a1-4)Gal(b1-4)Glc
Method in brief: as §1

Gal(a1-4)Gal(b1-4)GlcNAc = molecular target: Gal(a1-4)Gal(b1-4)GlcNAc
Method in brief: as §1

Gal(a1-4)GlcNAc = molecular target: Gal(a1-4)GlcNAc
Method in brief: as §1

Gal(a1-6)Glc = molecular target: Gal(a1-6)Glc
Method in brief: as §1

Gal(b1-2)Gal = molecular target: Gal(b1-2)Gal
Method in brief: as §1

Gal(b1-3)Gal = molecular target: Gal(b1-3)Gal
Method in brief: as §1

Gal(b1-3)Gal(b1-4)GlcNAc = molecular target: Gal(b1-3)Gal(b1-4)GlcNAc
Method in brief: as §1

Gal(b1-3)GalNAc = molecular target: Gal(b1-3)GalNAc
Method in brief: as §1

[12] = molecular target: Gal(b1-3)GalNAc(b1-3)Gal(a1-4)Gal(b1-4)Glc
Method in brief: as §1

[13] = molecular target: Gal(b1-3)GalNAc(b1-4)Gal(b1-4)Glc
Method in brief: as §1

[14] = molecular target: Gal(b1-3)GalNAc(b1-4)[Neu5Ac(a2-3)]Gal(b1-4)Glc
Method in brief: as §1

Gal(b1-3)GlcNAc = molecular target: Gal(b1-3)GlcNAc
Method in brief: as §1

[15] = molecular target: Gal(b1-3)GlcNAc(b1-2)Man(a1-3)[Gal(b1-3)GlcNAc(b1-2)Man(a1-6)]Man(b1-4)GlcNAc(b1-4)GlcNAc
Method in brief: as §1

[16] = molecular target: Gal(b1-3)GlcNAc(b1-3)Gal(b1-3)GlcNAc
Method in brief: as §1

[17] = molecular target: Gal(b1-3)GlcNAc(b1-3)Gal(b1-4)Glc
Method in brief: as §1

[18] = molecular target: Gal(b1-3)GlcNAc(b1-3)Gal(b1-4)GlcNAc
Method in brief: as §1

[19] = molecular target: Gal(b1-3)[Fuc(a1-4)]GlcNAc
Method in brief: as §1

[20] = molecular target: Gal(b1-3)[Fuc(a1-4)]GlcNAc(b1-3)Gal(b1-3)[Fuc(a1-4)]GlcNAc
Method in brief: as §1

[21] = molecular target: Gal(b1-3)[Fuc(a1-4)]GlcNAc(b1-3)Gal(b1-4)GlcNAc
Method in brief: as §1

B1: MUC1-SEA-mFcIgG2a (Homo sapiens), P15941 (SEA domain only) (protein)
chain: DAAQPARRAVRSSSELTSEQKLISEEDLSRLVHNGTSARATTTPASKSTPFSIPSHHSDTPTTLASHSTKTDASSTHHSTVPPLTSSNHSTSPQLSTGVSFFFLSFHISNLQFNSSLEDPSTDYYQELQRDISEMFLQIYKQGGFLGLSNIKFRPGSVVVQLTLAFREGTINVHDVETQFNQYKTEAASRYNLTISDASVSDVPFPFSAQSGSDDDDKALEPRGPTIKPCPPCKCPAPNLLGGPSVFIFPPKIKDVLMISLSPIVTCVVVDVSEDDPDVQISWFVNNVEVHTAQTQTHREDYNSTLRVVSALPIQHQDWMSGKEFKCKVNNKDLPAPIERTISKPKGSVRAPQVYVLPPPEEEMTKKQVTLTCMVTDFMPEDIYVEWTNNGKTELNYKNTEPVLDSDGSYFMYSKLRVEKKNWVERNSYSCSVVHEGLHNHHTTKSFSRTPGKHHHHH
- glycan array binding signal (z-score) [1]: -0.32
- glycan array binding signal (z-score) [2]: -0.46
- glycan array binding signal (z-score) [3]: -0.399
- glycan array binding signal (z-score) [4]: -0.045
- glycan array binding signal (z-score) [5]: 0.148
- glycan array binding signal (z-score) [6]: 0.745
- glycan array binding signal (z-score) [7]: -0.378
- glycan array binding signal (z-score) [8]: 1.11
- glycan array binding signal (z-score) [9]: -0.109
- glycan array binding signal (z-score) (Fuc(a1-4)GlcNAc): -0.243
- glycan array binding signal (z-score) (Fuc(b1-3)GlcNAc): -0.021
- glycan array binding signal (z-score) (Gal(a1-2)Gal): -0.134
- glycan array binding signal (z-score) (Gal(a1-3)Gal): -0.29
- glycan array binding signal (z-score) (Gal(a1-3)Gal(b1-3)GlcNAc): -0.394
- glycan array binding signal (z-score) (Gal(a1-3)Gal(b1-4)Glc): -0.099
- glycan array binding signal (z-score) (Gal(a1-3)Gal(b1-4)GlcNAc): -0.067
- glycan array binding signal (z-score) [10]: -0.449
- glycan array binding signal (z-score) (Gal(a1-3)GalNAc): -0.153
- glycan array binding signal (z-score) [11]: -0.03
- glycan array binding signal (z-score) (Gal(a1-4)Gal(b1-4)Glc): 0.336
- glycan array binding signal (z-score) (Gal(a1-4)Gal(b1-4)GlcNAc): 0.335
- glycan array binding signal (z-score) (Gal(a1-4)GlcNAc): -0.358
- glycan array binding signal (z-score) (Gal(a1-6)Glc): 0.204
- glycan array binding signal (z-score) (Gal(b1-2)Gal): 1.06
- glycan array binding signal (z-score) (Gal(b1-3)Gal): -0.043
- glycan array binding signal (z-score) (Gal(b1-3)Gal(b1-4)GlcNAc): -0.317
- glycan array binding signal (z-score) (Gal(b1-3)GalNAc): -0.147
- glycan array binding signal (z-score) [12]: -0.529
- glycan array binding signal (z-score) [13]: 0.472
- glycan array binding signal (z-score) [14]: -0.433
- glycan array binding signal (z-score) (Gal(b1-3)GlcNAc): -0.294
- glycan array binding signal (z-score) [15]: -0.358
- glycan array binding signal (z-score) [16]: -0.473
- glycan array binding signal (z-score) [17]: -0.191
- glycan array binding signal (z-score) [18]: -0.319
- glycan array binding signal (z-score) [19]: -0.253
- glycan array binding signal (z-score) [20]: -0.122
- glycan array binding signal (z-score) [21]: -0.442
